Screen size: about 280,000 compounds; about 100 (0.036%) were called active. Inconclusive results, whose numbers are uncertain, are shown with a selection of clear calls. The call rests on the fitted dose curve; in most records, active means well fitted inhibition curve with a large enough effect in the signal ratio, with a control signal flat (not every such curve was filed as active); inconclusive means small, poorly fitted or top-dose-only effect, or effect the other way, or a change in a side signal; inactive means no such curve, though single readings can be large or run the other way; the % refers to the signal ratio. A potency beside an inconclusive call is a rough fit, not a confirmed value. A note “side channel” means that the fit belongs to a control or component signal, not to the main read-out.
target: Muscleblind-like protein 1 (Homo sapiens) (UniProt Q9NR56); experiment: qHTS Assay for Inhibitors of MBNL1-poly(CUG) RNA binding; conditions: TR-FRET MBNL1-His/biotin-(CUG)12 binding, 665/545 ratio; activity change, negative = inhibition: at 57.5 µM (top of the series)
In short: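 TR-FRET readout: Ex 340 nm, 665/545 nm emission ratio, normalized to buffer-only (basal) and MBNL1-(CUG)12 controls. Complex of MBNL1-His with Biotin-(CUG)12, compounds 92 nM–58 uM, incubated 60 min at room temperature.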
On the % scale 0 is the no-effect control and ±100 the full control effect; potency means the concentration at half of the fitted maximal effect; tags describe the fitted curve by direction and shape or compound fluorescence and quenching.

Sequence of UniProt Q9NR56 (Q9NR56 whole entry, looked up): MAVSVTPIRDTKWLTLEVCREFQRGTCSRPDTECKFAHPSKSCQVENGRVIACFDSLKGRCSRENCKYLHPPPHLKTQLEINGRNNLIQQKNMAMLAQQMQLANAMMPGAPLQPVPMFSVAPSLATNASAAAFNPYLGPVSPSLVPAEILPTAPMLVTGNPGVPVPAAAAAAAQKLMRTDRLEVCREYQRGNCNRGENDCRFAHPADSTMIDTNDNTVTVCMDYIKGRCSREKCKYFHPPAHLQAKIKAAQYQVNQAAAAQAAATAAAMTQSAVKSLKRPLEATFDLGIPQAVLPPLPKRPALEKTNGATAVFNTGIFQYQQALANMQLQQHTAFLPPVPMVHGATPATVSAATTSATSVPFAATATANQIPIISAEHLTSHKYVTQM

| SMILES | Potency | activity change, negative = inhibition |
| --- | --- | --- |
| CCOc1cc(/C=N/NC(=O)CN2CCOCC2)ccc1OCc1ccc(Cl)cc1 | inconclusive: 4.47 µM [quencher, side channel, single point] |  |
| CCOc1ccc(N2CC(C(=O)NCCc3ccc(OC)c(OC)c3)CC2=O)cc1 (stereo not given) |  | inactive: -3.8% |
| COC(=O)C1=C(C)n2cnnc2NC1c1ccc(Cl)cc1 (stereo not given) | inconclusive: 6.31 µM [fluorescent, side channel, partial curve, poor fit] |  |
| COCCNc1nnc(SCC(=O)c2ccc3c(c2)OCO3)s1 | inconclusive: 14.1 µM [quencher, side channel, partial curve] |  |
| Cn1c(=O)[nH]c(=O)c2c1nc(N/N=C/C(Br)=C/c1ccccc1)n2CCO | inconclusive: 11.2 µM [quencher, side channel, partial curve] |  |
| O=c1ccc(-c2ccc(S(=O)(=O)N3CCCCC3)o2)n[nH]1 | inconclusive: 11.2 µM [quencher, side channel, partial curve] |  |
| O=C(N/N=C/c1cccs1)c1cncc(Br)c1 | inconclusive: 22.4 µM [quencher, side channel, single point] |  |
| Cn1ccnc1C(=O)c1cccc([N+](=O)[O-])c1 | inconclusive: 7.94 µM [activator, partial curve] |  |
| CCn1c2ccccc2c2nc3cc(S(=O)(=O)N4CCOCC4)ccc3nc21 | inconclusive: 15.8 µM [quencher, side channel, partial curve] |  |
| CCN(CC)CCNC(=O)CCCCn1c(=S)[nH]c2c([nH]c3ccc(OC)cc32)c1=O | inconclusive: 22.4 µM [quencher, side channel, partial curve] |  |
| Nc1nnc(-c2ccc(Cl)c([N+](=O)[O-])c2)s1 | inconclusive: 39.8 µM [quencher, single point] |  |
| COc1ccc(Cc2nnc(NC(=O)CSc3ccccc3)s2)cc1 | inconclusive: 3.55 µM [quencher, side channel, partial curve] |  |
| CSc1ccccc1C(=O)Nc1ccc2c(c1)OCCO2 |  | inactive: -4.44% |
| Nc1nonc1-n1nnc(C(=O)N/N=C/c2cccc(Cl)c2)c1-c1cccs1 |  | inactive: 10% |
| CC(Nc1cc(C)cc(C)c1)=[N+](C)CCNS(=O)(=O)c1ccc(Cl)cc1 |  | inactive: 0.71% |
| Cc1nc2ccc(Br)cn2c1C(=O)N/N=C\c1ccccc1[N+](=O)[O-] | inconclusive: 10 µM [quencher, side channel, partial curve] |  |
| Cc1cc(=O)n2c3ccccc3n(CC(O)CN3CCC(C)CC3)c2c1C#N (stereo not given) | inconclusive: 39.8 µM [fluorescent, side channel, partial curve] |  |
| O=C(CNC(=O)c1ccccc1O)N/N=C/c1ccccn1 | inconclusive: 35.5 µM [quencher, side channel, single point] |  |
| Cc1ccc(C2(CCNS(=O)(=O)c3ccc(C)cc3)CCOC(C(C)C)C2)cc1 (stereo not given) | inconclusive: 0.447 µM [fluorescent, side channel, full curve, poor fit] |  |
| CC1CCC(C(C)C)C2=C1C(C#N)(C#N)C(C#N)(C#N)C(c1ccccc1)N2 (stereo not given) | inconclusive: 39.8 µM [quencher, side channel, single point] |  |

| SMILES | Potency | activity change, negative = inhibition |
| --- | --- | --- |
| CCOc1nc(NC2CCCC2)nc(N2CCC(C)CC2)n1 |  | inactive: -5.25% |
| O=c1c2ccccc2ncn1Cc1ccc(Cl)cc1 |  | inactive: -6.11% |
| C=CCn1c(COc2cccc(C)c2)nnc1SCn1nnc2ccccc2c1=O | inconclusive: 28.2 µM [quencher, side channel, single point] |  |
| O=C(/C=C/c1cccc([N+](=O)[O-])c1)NCc1ccco1 |  | inconclusive: 29% [phenotype inactive] |
| CCNc1nc(SCC(=O)Nc2ccccc2)nc(N2CCOCC2)n1 |  | inactive: -3.28% |
| O=C(c1ccccc1)c1ccc(NCCCn2ccnc2)c([N+](=O)[O-])c1 | inconclusive: 5.01 µM [quencher, side channel, full curve] |  |
| COc1ccc(C(=O)c2nc3c(n2O)CCCCC3)cc1 | inconclusive: 17.8 µM [quencher, side channel, partial curve] |  |
| COc1ccc(/C=N/n2cnn(Cc3ccccc3Cl)c2=S)cc1 | inconclusive: 1 µM [quencher, side channel, full curve] |  |
| CCCCn1nc2cc(C(=O)NCCc3cccs3)ccc2c1OCC | inconclusive: 31.6 µM [quencher, side channel, single point] |  |
| O=C(CN(c1ccccn1)S(=O)(=O)c1ccccc1)N/N=C/c1cccc([N+](=O)[O-])c1 | inconclusive: 15.8 µM [quencher, side channel, partial curve] |  |
| COc1ccc(/C=C2\SC(=S)N(CC(=O)NC3CCS(=O)(=O)C3)C2=O)cc1 (stereo not given) | inconclusive: 3.55 µM [quencher, side channel, full curve] |  |
| O=C(/C=C/c1ccccc1Cl)Nc1ccncc1 | inconclusive: 15.8 µM [quencher, side channel, partial curve] |  |
| CCC(Oc1ccccc1)C(=O)NC1C(=O)N2C1SC(C)(C)C2C(=O)O (stereo not given) |  | inactive: -7.74% |
| COC(=O)c1ccccc1NC(=S)N(Cc1ccc2c(c1)OCO2)Cc1cc2ccc(OC)cc2[nH]c1=O | inconclusive: 7.08 µM [quencher, side channel, single point] |  |
| CC1=NN(c2ccccc2)C(=O)/C1=C/c1ccc[nH]1 | inconclusive: 25.1 µM [quencher, side channel, partial curve] |  |
| O=c1cc(CO)oc(C(Nc2ccccn2)c2cccc(F)c2)c1O (stereo not given) |  | inactive: -3.75% |
| COc1cc(NC(=O)CN(C)Cc2cccc(F)c2)c(C)cc1[N+](=O)[O-] |  | inactive: 0.0018% |
| COc1ccccc1NC(=S)N(Cc1ccco1)Cc1cc2cc(C)c(C)cc2[nH]c1=O | inconclusive: 3.55 µM [fluorescent, side channel, full curve] |  |
| Cc1ccc(C(=O)O)cc1NC(=S)NC(=O)c1ccc([N+](=O)[O-])c(C)c1 | inconclusive: 3.55 µM [quencher, full curve] |  |
| O=C(O)CCCC(=O)Nc1ccc(N=Nc2ccccc2)cc1 | inconclusive: 14.1 µM [quencher, side channel, partial curve] |  |

| SMILES | Potency | activity change, negative = inhibition |
| --- | --- | --- |
| CCOc1ccc(C(=O)NCC(=O)OCc2ccc(F)cc2Cl)cc1 | inconclusive: 0.282 µM [fluorescent, side channel, full curve] |  |
| Cn1c(SCC(=O)N2CCCCCC2)nc2c(c1=O)SCC2 | inconclusive: 44.7 µM [quencher, side channel, partial curve, poor fit] |  |
| COc1cc(NC(=O)COC(=O)CNC(=O)c2ccc(C)cc2)c(C)cc1[N+](=O)[O-] | inconclusive: 8.91 µM [quencher, side channel, partial curve] |  |
| C=CCn1c2ccccc2c2nnc(SCCN3CCCCC3)nc21 | inconclusive: 15.8 µM [quencher, side channel, partial curve] |  |
| COc1ccc(NC(=S)N(CCCN2CCC(C)CC2)Cc2cccs2)cc1Cl |  | inactive: -6.09% |
| CC1(C)CC(=O)c2sc(NS(=O)(=O)c3ccc([N+](=O)[O-])cc3)nc2C1 | inconclusive: 28.2 µM [quencher, side channel, partial curve] |  |
| CO/N=C/c1ccc(N2CCOCC2)c([N+](=O)[O-])c1 | inconclusive: 12.6 µM [quencher, side channel, partial curve] |  |
| O=C(O)c1cc2cc(Cl)ccc2oc1=O | inconclusive: 22.4 µM [quencher, side channel, partial curve] |  |
| COc1ccc(N2CSC3=C(C#N)C(c4cccs4)CC(=O)N3C2)cc1 (stereo not given) | inconclusive: 20 µM [quencher, side channel, partial curve] |  |
| COc1cc(/C=N/NC(=O)Cn2nnc3ccccc32)ccc1O | inconclusive: 12.6 µM [quencher, side channel, partial curve] |  |
| O=c1oc2cc(O)ccc2c2ccccc12 | inconclusive: 15.8 µM [fluorescent, side channel, partial curve] |  |
| O=C(CSc1ccccc1)Nc1ccc2c(c1)C(=O)NC2=O | inconclusive: 14.1 µM [quencher, side channel, partial curve] |  |
| Cc1cccc(Sc2c([N+](=O)[O-])ncn2C)n1 | inconclusive: 28.2 µM [quencher, side channel, single point] |  |
| Oc1[nH]c2ccccc2c1N=Nc1nncc2ccccc12 | inconclusive: 35.5 µM [quencher, side channel, single point] |  |
| NS(=O)(=O)c1ccc(NC(=S)NCc2ccccc2Cl)cc1 | inconclusive: 3.98 µM [fluorescent, side channel, partial curve] |  |
| Clc1ccc2nnc(Cl)n2n1 | inconclusive: 31.6 µM [quencher, side channel, single point] |  |
| N#C/C(=C\c1ccccc1O)C(=O)Nc1ccccn1 | inconclusive: 20 µM [quencher, side channel, partial curve] |  |
| C=CCC1=C/C(=C\c2c(N)n3nc(CC(=O)N4CCOCC4)sc3nc2=O)C=C(OC)C1=O | inconclusive: 17.8 µM [quencher, side channel, partial curve] |  |
| O=C1/C(=C/c2ccco2)SC(=S)N1CC1CCCO1 (stereo not given) | inconclusive: 14.1 µM [quencher, side channel, partial curve] |  |
| Cc1cccc(-n2c3nc(=O)[nH]c(=O)c-3cc3cc([N+](=O)[O-])ccc32)c1 | inconclusive: 3.98 µM [quencher, side channel, partial curve] |  |

From PubChem BioAssay AID2675 (National Center for Advancing Translational Sciences (NCATS), 2010)
